Experimental data from the supplement of paper PMC12217912.
The other results are listed elsewhere or left out. The full chains were built here from the parent and the listed change. Values near 0.05 are background.

B1: TEV protease; numbered along this chain (parent)
chain: MGESLFKGPRDYNPISSSICHLTNESDGHTTSLYGIGFGPFIITNKHLFRRNNGTLVVQSLHGVFKVKDTTTLQQHLVDGRDMIIIRMPKDFPPFPQKLKFREPQREERICLVTTNFQTKSMSSMVSDTSCTFPSGDGIFWKHWIQTKDGQCGSPLVSTRDGFIVGIHSASNFTNTNNYFTSVPKNFMELLTNQEAQQWVSGWRLNADSVLWGGHKVFMVKPEEPFQPVKEATQL

Variants of: B1
Experiment: raw area under fraction-flipped curve 0-4 h after induction (AUC4h, not background-subtracted), DNA-recorder readout of cleavage of the substrate (dimensionless); higher = more cleavage of the substrate by the protease variant
Conditions: temperature: 34 °C; time window: 0-4 h after rhamnose induction
Description: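 In vivo DNA recorder in E. coli TOP10(DE3) ΔrhaA at 34 °C. Each TEVp single-site mutant (parent TEVp 0) is paired with a single-site variant of the 7-mer TEVs (canonical ENLYFQ|S). The substrate sits between flexible linkers in a Bxb1-sfGFP-TEVs-SsrA fusion, so cleavage stabilises Bxb1 and speeds flipping of a recombination array, read by NGS. The value is the raw area under the fraction-flipped curve over 0-4 h after rhamnose induction (AUC4h), with ≥20 reads per time point. It is not background-subtracted; inactive controls average about 0.047.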
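Note: Bxb1 expression induced with 0.2% (w/v) L-rhamnose at OD600 near 0.5, cultures sampled hourly, flipped fraction per protease–substrate barcode pair counted by paired-end Illumina sequencing.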

| Variant | area with substrate ENAYFQS | area with substrate ENDYFQS | area with substrate ENEYFQS | area with substrate ENMYFQS | area with substrate ENNYFQS | area with substrate ENQYFQS | area with substrate ENRYFQS | area with substrate ENSYFQS | area with substrate ENTYFQS | area with substrate ENVYFQS |
| --- | --- | --- | --- | --- | --- | --- | --- | --- | --- | --- |
| MGESLFKGPRDYNPISSSICHLTNESDGHTTSLYGIGFGPFIITNKHLFRRNNGTLVVQSLHGVFKVKDTTTLQQHLVDGRDMIIIRMPKDFPPFPQKLKFREPQREERICLVTTNFQTKSMSSMVSDTSCTFPSGDGIFWKHWIQTKDGQCGSPLVSTRDGFIVGIHSASNFTNTTNYFTSVPKNFMELLTNQEAQQWVSGWRLNADSVLWGGHKVFMVKPEEPFQPVKEATQL [N177T] | 0.0763 | 0.0538 | 0.063 | 0.0887 | 0.0559 | 0.0589 | 0.0574 | 0.0705 | 0.0629 | 0.102 |
| MGESLFKGPRDYNPISSSICHLTNESDGHTTSLYGIGFGPFIITNKHLFRRNNGTLVVQSLHGVFKVKDTTTLQQHLVDGRDMIIIRMPKDFPPFPQKLKFREPQREERICLVTTNFQTKSMSSMVSDTSCTFPSGDGIFWKHWIQTKDGQCGSPLVSTRDGFIVGIHSASNFTNTNMYFTSVPKNFMELLTNQEAQQWVSGWRLNADSVLWGGHKVFMVKPEEPFQPVKEATQL [N178M] | 0.104 | – | 0.0515 | – | 0.0533 | 0.0686 | – | – | 0.0341 | – |
| MGESLFKGPRDYNPISSSICHLTNESDGHTTSLYGIGFGPFIITNKHLFRRNNGTLVVQSLHGVFKVKDTTTLQQHLVDGRDMIIIRMPKDFPPFPQKLKFREPQREERICLVTTNFQTKSMSSMVSDTSCTFPSGDGIFWKHWIQTKDGQCGSPLVSTRDGFIVGIHSASNFTNTNRYFTSVPKNFMELLTNQEAQQWVSGWRLNADSVLWGGHKVFMVKPEEPFQPVKEATQL [N178R] | 0.0749 | – | 0.0393 | – | – | 0.0327 | 0.0507 | 0.0694 | – | 0.0698 |
| MGESLFKGPRDYNPISSSICHLTNESDGHTTSLYGIGFGPFIITNKHLFRRNNGTLVVQSLHGVFKVKDTTTLQQHLVDGRDMIIIRMPKDFPPFPQKLKFREPQREERICLVTTNFQTKSMSSMVSDTSCTFPSGDGIFWKHWIQTKDGQCGSPLVSTRDGFIVGIHSASNFTNTNNYSTSVPKNFMELLTNQEAQQWVSGWRLNADSVLWGGHKVFMVKPEEPFQPVKEATQL [F180S] | 0.0561 | – | – | – | 0.06 | – | – | – | – | 0.0553 |
| MGESLFKGPRDYNPISSSICHLTNESDGHTTSLYGIGFGPFIITNKHLFRRNNGTLVVQSLHGVFKVKDTTTLQQHLVDGRDMIIIRMPKDFPPFPQKLKFREPQREERICLVTTNFQTKSMSSMVSDTSCTFPSGDGIFWKHWIQTKDGQCGSPLVSTRDGFIVGIHSASNFTNTNNYFKSVPKNFMELLTNQEAQQWVSGWRLNADSVLWGGHKVFMVKPEEPFQPVKEATQL [T181K] | 0.0461 | 0.0554 | 0.0423 | 0.0876 | 0.0201 | – | – | – | – | – |
| MGESLFKGPRDYNPISSSICHLTNESDGHTTSLYGIGFGPFIITNKHLFRRNNGTLVVQSLHGVFKVKDTTTLQQHLVDGRDMIIIRMPKDFPPFPQKLKFREPQREERICLVTTNFQTKSMSSMVSDTSCTFPSGDGIFWKHWIQTKDGQCGSPLVSTRDGFIVGIHSASNFTNTNNYFTCVPKNFMELLTNQEAQQWVSGWRLNADSVLWGGHKVFMVKPEEPFQPVKEATQL [S182C] | 0.0611 | – | – | – | – | – | – | 0.0702 | – | – |

Same assay, conditions: temperature: 34 °C; time window: 0-4 h after rhamnose induction

| Variant | area with substrate ENYYFQS | area with substrate ENCYFQS | area with substrate ENFYFQS | area with substrate ENHYFQS | area with substrate ENPYFQS | area with substrate ENIYFQS | area with substrate ENWYFQS |
| --- | --- | --- | --- | --- | --- | --- | --- |
| MGESLFKGPRDYNPISSSICHLTNESDGHTTSLYGIGFGPFIITNKHLFRRNNGTLVVQSLHGVFKVKDTTTLQQHLVDGRDMIIIRMPKDFPPFPQKLKFREPQREERICLVTTNFQTKSMSSMVSDTSCTFPSGDGIFWKHWIQTKDGQCGSPLVSTRDGFIVGIHSASNFTNTTNYFTSVPKNFMELLTNQEAQQWVSGWRLNADSVLWGGHKVFMVKPEEPFQPVKEATQL [N177T] | 0.0501 | – | – | – | – | – | – |
| MGESLFKGPRDYNPISSSICHLTNESDGHTTSLYGIGFGPFIITNKHLFRRNNGTLVVQSLHGVFKVKDTTTLQQHLVDGRDMIIIRMPKDFPPFPQKLKFREPQREERICLVTTNFQTKSMSSMVSDTSCTFPSGDGIFWKHWIQTKDGQCGSPLVSTRDGFIVGIHSASNFTNTNMYFTSVPKNFMELLTNQEAQQWVSGWRLNADSVLWGGHKVFMVKPEEPFQPVKEATQL [N178M] | – | 0.111 | 0.0873 | 0.0443 | 0.0499 | – | – |
| MGESLFKGPRDYNPISSSICHLTNESDGHTTSLYGIGFGPFIITNKHLFRRNNGTLVVQSLHGVFKVKDTTTLQQHLVDGRDMIIIRMPKDFPPFPQKLKFREPQREERICLVTTNFQTKSMSSMVSDTSCTFPSGDGIFWKHWIQTKDGQCGSPLVSTRDGFIVGIHSASNFTNTNRYFTSVPKNFMELLTNQEAQQWVSGWRLNADSVLWGGHKVFMVKPEEPFQPVKEATQL [N178R] | 0.0892 | – | – | 0.0519 | – | – | – |
| MGESLFKGPRDYNPISSSICHLTNESDGHTTSLYGIGFGPFIITNKHLFRRNNGTLVVQSLHGVFKVKDTTTLQQHLVDGRDMIIIRMPKDFPPFPQKLKFREPQREERICLVTTNFQTKSMSSMVSDTSCTFPSGDGIFWKHWIQTKDGQCGSPLVSTRDGFIVGIHSASNFTNTNNYSTSVPKNFMELLTNQEAQQWVSGWRLNADSVLWGGHKVFMVKPEEPFQPVKEATQL [F180S] | – | – | 0.0475 | – | – | – | – |
| MGESLFKGPRDYNPISSSICHLTNESDGHTTSLYGIGFGPFIITNKHLFRRNNGTLVVQSLHGVFKVKDTTTLQQHLVDGRDMIIIRMPKDFPPFPQKLKFREPQREERICLVTTNFQTKSMSSMVSDTSCTFPSGDGIFWKHWIQTKDGQCGSPLVSTRDGFIVGIHSASNFTNTNNYFKSVPKNFMELLTNQEAQQWVSGWRLNADSVLWGGHKVFMVKPEEPFQPVKEATQL [T181K] | – | – | – | 0.0561 | 0.0426 | – | – |
| MGESLFKGPRDYNPISSSICHLTNESDGHTTSLYGIGFGPFIITNKHLFRRNNGTLVVQSLHGVFKVKDTTTLQQHLVDGRDMIIIRMPKDFPPFPQKLKFREPQREERICLVTTNFQTKSMSSMVSDTSCTFPSGDGIFWKHWIQTKDGQCGSPLVSTRDGFIVGIHSASNFTNTNNYFTCVPKNFMELLTNQEAQQWVSGWRLNADSVLWGGHKVFMVKPEEPFQPVKEATQL [S182C] | 0.0633 | – | – | – | – | 0.109 | 0.0544 |
